# According to PubChem BioAssay AID1508642 (National Center for Advancing Translational Sciences (NCATS), 2021):
# The campaign covered roughly 43,000 compounds. About 200 (0.47%) were called active. About 12% were inconclusive and are not listed. The call rests on the fitted dose curve; in most records, active means well fitted cell-killing curve with a large enough effect; inconclusive means small, poorly fitted or top-dose-only effect, or effect the other way; inactive means flat fitted curve, though single readings scatter. Some of the results follow.
# Assay: Cell viability qHTS assay in S16 Pmp22-F2sN cells; further: nearly all actives have a fitted effect of over 65% in size
# Details: S16 Pmp22-F2sN Schwann cells (luciferase reporters placed in the Pmp22 gene) viability, CellTiter-Glo, 24 h; series mostly up to 57.5 µM; activity change, negative = cytotoxicity: at the top concentration
# Procedure, shortened: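 Rat S16 Schwann reporter line, 24 h treatment with library compounds delivered at 23 nL per well. Cell viability by CellTiter-Glo luminescence.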
# On the % scale 0 is the no-effect control and ±100 the full control effect.
row,SMILES,"activity change, negative = cytotoxicity"
1,CCC1CN(C(=O)NCc2ccc(C)cc2)c2cc(C)ccc2O1 (stereo unspecified),inactive: -0.467%
2,COc1ccccc1CNc1nc2nc(C)c(Cl)c(C)n2n1,inactive: 0.0613%
3,COC(=O)c1c(NC(=O)c2cccc(OC)c2)sc2c1CCC(C(C)(C)C)C2 (stereo unspecified),inactive: 4.18%
4,Cc1nc2c(c(C)c1CCC(=O)Nc1cccc(C(F)(F)F)c1)c(=O)n(C)c(=O)n2C,inactive: 7.18%
5,Cc1nnc(NC(=O)CSc2nccn2-c2cccc(Cl)c2)s1,inactive: 1.45%
6,CC1CCCN(S(=O)(=O)c2cc3c(cc2Cl)NC(=O)CO3)C1 (stereo unspecified),inactive: 1.76%
7,COc1ccc(C(=O)Nc2ccccc2C(=O)OCc2cc(=O)n3c4c(sc3n2)CCCC4)cc1,inactive: -28%
8,O=C(CCC(=O)N1CC2CCCN2c2ccccc21)NCc1ccccc1Cl (stereo unspecified),inactive: -14.5%
9,COc1ccc(-c2cc(=O)n3[nH]cnc3n2)cc1,inactive: 0.691%
10,COc1ccc(N2CCN(c3ccc(-c4nc(-c5ccccc5C)no4)cc3[N+](=O)[O-])CC2)cc1,inactive: 13.1%
11,Cc1cccc(-c2nc(SCC(=O)Nc3cc(C)on3)c3c(=O)n(C)c(=O)n(C)c3n2)c1,inactive: -3.39%
12,COCCCNC(=O)c1ccc2c(c1)N=C(C)c1c(C)ccc(C)c1S2,inactive: 11.3%
13,Cc1ccc(NC(=O)C(Cc2ccccc2)NS(=O)(=O)c2ccc3c(c2)oc(=O)n3C)c(Cl)c1 (stereo unspecified),inactive: -15.1%
14,COc1ccccc1NC(=O)c1cc(S(=O)(=O)N(C)C2CCCCC2)ccc1F,inactive: -0.386%
15,CC1=C(C(=O)Nc2ccccc2C)C(c2cccnc2)n2nc(SCc3ccccc3)nc2N1 (stereo unspecified),inactive: 0.845%
16,CCOC(=O)N1CCc2c(sc3c2c(=O)n(CCc2ccccc2)c(=O)n3Cc2cc(C)ccc2C)C1,inactive: 10.3%
17,COCCNC(=O)Cn1cc(S(=O)(=O)Cc2ccccc2Cl)c2ccccc21,inactive: 6.15%
18,Cc1ccc(-c2nnc(Nc3ccc(Br)cc3)c3ccccc23)cc1S(=O)(=O)N1CCOCC1,inactive: 15%
19,COc1ccc(-n2c(=O)c3sc4ccccc4c3n(CC(=O)Nc3cccc(C)c3)c2=O)cc1,inactive: 2.2%
20,CCN(CC)S(=O)(=O)c1ccc2c(c1)N(CC(=O)NCCc1ccc(OC)c(OC)c1)C(=O)CO2,inactive: -3.01%
21,CCOc1ccccc1NC(=O)c1cn(C2CCCC2)c(=O)c2c1c1ccccc1n2C,inactive: 7.27%
22,COc1ccccc1NC(=O)C1=C(C)Nc2nc(SCc3ccccc3)nn2C1c1ccccn1 (stereo unspecified),inactive: 16.7%
23,Brc1ccccc1-n1ncc2c1ncn1nc(Cc3ccccc3)nc21,inactive: 9.09%
24,Cc1ccc2c(c1)N(C(=O)CCC(=O)Nc1ccccc1Cl)CC(C)O2 (stereo unspecified),inactive: -7.37%
25,O=c1cc(CSc2ncn[nH]2)[nH]c2c(Cl)cccc12,inactive: 14.7%
26,CCN(CC)c1ccc(C(=O)NCc2ccc3c(c2)CCN3C(=O)c2ccccc2)cc1,inactive: -0.353%
